# Source: the supplement of paper PMC8728848
# Some of the results follow.
# Tests used:
# Assay in all cases: glycan array binding signal (z-score within array); higher = stronger binding
# Details in all cases: glycan notation: IUPAC condensed, linker removed
# [1] = molecular target: Fuc(a1-2)Gal6S(b1-3)GlcNAc6S
# Summary of the method: (§1)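 Negative Z-scores can be read as non-binding. The Z-score is calculated within each array and then averaged across arrays of one protein sequence at different concentrations or buffers and across linkers. Arrays, 3228 in all, were curated from the Consortium for Functional Glycomics database and kept only where the protein sequence was available.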
# Fuc(a1-2)Gal6S(b1-4)Glc = molecular target: Fuc(a1-2)Gal6S(b1-4)Glc
# Summary of the method: as §1
# [2] = molecular target: Fuc(a1-2)Gal6S(b1-4)Glc6S
# Summary of the method: as §1
# Fuc(a1-2)[Gal(a1-3)]Gal = molecular target: Fuc(a1-2)[Gal(a1-3)]Gal
# Summary of the method: as §1
# [3] = molecular target: Fuc(a1-2)[Gal(a1-3)]Gal(b1-3)GalNAc
# Summary of the method: as §1
# [4] = molecular target: Fuc(a1-2)[Gal(a1-3)]Gal(b1-3)GalNAc(b1-3)Gal(a1-4)Gal(b1-4)Glc
# Summary of the method: as §1
# [5] = molecular target: Fuc(a1-2)[Gal(a1-3)]Gal(b1-3)GlcNAc
# Summary of the method: as §1
# [6] = molecular target: Fuc(a1-2)[Gal(a1-3)]Gal(b1-3)GlcNAc(b1-2)Man(a1-3)[Fuc(a1-2)[Gal(a1-3)]Gal(b1-3)GlcNAc(b1-2)Man(a1-6)]Man(b1-4)GlcNAc(b1-4)GlcNAc
# Summary of the method: as §1
# [7] = molecular target: Fuc(a1-2)[Gal(a1-3)]Gal(b1-3)GlcNAc(b1-2)Man(a1-3)[Fuc(a1-2)[Gal(a1-3)]Gal(b1-3)GlcNAc(b1-2)Man(a1-6)]Man(b1-4)GlcNAc(b1-4)[Fuc(a1-6)]GlcNAc
# Summary of the method: as §1
# [8] = molecular target: Fuc(a1-2)[Gal(a1-3)]Gal(b1-3)GlcNAc(b1-3)GalNAc
# Summary of the method: as §1
# [9] = molecular target: Fuc(a1-2)[Gal(a1-3)]Gal(b1-3)GlcNAc(b1-6)GalNAc
# Summary of the method: as §1
# [10] = molecular target: Fuc(a1-2)[Gal(a1-3)]Gal(b1-4)Glc
# Summary of the method: as §1
# [11] = molecular target: Fuc(a1-2)[Gal(a1-3)]Gal(b1-4)GlcNAc
# Summary of the method: as §1
# [12] = molecular target: Fuc(a1-2)[Gal(a1-3)]Gal(b1-4)GlcNAc(b1-2)Man
# Summary of the method: as §1
# [13] = molecular target: Fuc(a1-2)[Gal(a1-3)]Gal(b1-4)GlcNAc(b1-2)Man(a1-3)[Fuc(a1-2)[Gal(a1-3)]Gal(b1-4)GlcNAc(b1-2)Man(a1-6)]Man(b1-4)GlcNAc(b1-4)GlcNAc
# Summary of the method: as §1
# [14] = molecular target: Fuc(a1-2)[Gal(a1-3)]Gal(b1-4)GlcNAc(b1-2)Man(a1-3)[Fuc(a1-2)[Gal(a1-3)]Gal(b1-4)GlcNAc(b1-2)Man(a1-6)]Man(b1-4)GlcNAc(b1-4)[Fuc(a1-6)]GlcNAc
# Summary of the method: as §1
# [15] = molecular target: Fuc(a1-2)[Gal(a1-3)]Gal(b1-4)GlcNAc(b1-3)GalNAc
# Summary of the method: as §1
# [16] = molecular target: Fuc(a1-2)[Gal(a1-3)]Gal(b1-4)GlcNAc(b1-3)[Fuc(a1-2)[Gal(a1-3)]Gal(b1-4)GlcNAc(b1-6)]GalNAc
# Summary of the method: as §1
# [17] = molecular target: Fuc(a1-2)[Gal(a1-3)]Gal(b1-4)GlcNAc(b1-6)GalNAc
# Summary of the method: as §1
# [18] = molecular target: Fuc(a1-2)[Gal(a1-3)]Gal(b1-4)[Fuc(a1-3)]Glc
# Summary of the method: as §1
# [19] = molecular target: Fuc(a1-2)[Gal(a1-3)]Gal(b1-4)[Fuc(a1-3)]GlcNAc
# Summary of the method: as §1
# [20] = molecular target: Fuc(a1-2)[Gal(a1-3)]Gal(b1-4)[Fuc(a1-3)]GlcNAc(b1-3)GalNAc
# Summary of the method: as §1
# [21] = molecular target: Fuc(a1-2)[Gal(a1-4)]Gal(b1-4)GlcNAc
# Summary of the method: as §1
# [22] = molecular target: Fuc(a1-2)[GalNAc(a1-3)]Gal
# Summary of the method: as §1
# [23] = molecular target: Fuc(a1-2)[GalNAc(a1-3)]Gal(b1-3)GalNAc(a1-3)[Fuc(a1-2)]Gal(b1-4)GlcNAc
# Summary of the method: as §1
# [24] = molecular target: Fuc(a1-2)[GalNAc(a1-3)]Gal(b1-3)GalNAc(b1-3)Gal(a1-4)Gal(b1-4)Glc
# Summary of the method: as §1
# [25] = molecular target: Fuc(a1-2)[GalNAc(a1-3)]Gal(b1-3)GlcNAc
# Summary of the method: as §1
# [26] = molecular target: Fuc(a1-2)[GalNAc(a1-3)]Gal(b1-3)GlcNAc(b1-2)Man(a1-3)[Fuc(a1-2)[GalNAc(a1-3)]Gal(b1-3)GlcNAc(b1-2)Man(a1-6)]Man(b1-4)GlcNAc(b1-4)GlcNAc
# Summary of the method: as §1
# [27] = molecular target: Fuc(a1-2)[GalNAc(a1-3)]Gal(b1-3)GlcNAc(b1-2)Man(a1-3)[Fuc(a1-2)[GalNAc(a1-3)]Gal(b1-3)GlcNAc(b1-2)Man(a1-6)]Man(b1-4)GlcNAc(b1-4)[Fuc(a1-6)]GlcNAc
# Summary of the method: as §1
# [28] = molecular target: Fuc(a1-2)[GalNAc(a1-3)]Gal(b1-3)GlcNAc(b1-3)GalNAc
# Summary of the method: as §1
# [29] = molecular target: Fuc(a1-2)[GalNAc(a1-3)]Gal(b1-3)GlcNAc(b1-6)GalNAc
# Summary of the method: as §1
# [30] = molecular target: Fuc(a1-2)[GalNAc(a1-3)]Gal(b1-4)Glc
# Summary of the method: as §1
# [31] = molecular target: Fuc(a1-2)[GalNAc(a1-3)]Gal(b1-4)GlcNAc
# Summary of the method: as §1
# [32] = molecular target: Fuc(a1-2)[GalNAc(a1-3)]Gal(b1-4)GlcNAc(b1-2)Man
# Summary of the method: as §1
# [33] = molecular target: Fuc(a1-2)[GalNAc(a1-3)]Gal(b1-4)GlcNAc(b1-2)Man(a1-3)[Fuc(a1-2)[GalNAc(a1-3)]Gal(b1-4)GlcNAc(b1-2)Man(a1-6)]Man(b1-4)GlcNAc(b1-4)GlcNAc
# Summary of the method: as §1
# [34] = molecular target: Fuc(a1-2)[GalNAc(a1-3)]Gal(b1-4)GlcNAc(b1-2)Man(a1-3)[Fuc(a1-2)[GalNAc(a1-3)]Gal(b1-4)GlcNAc(b1-2)Man(a1-6)]Man(b1-4)GlcNAc(b1-4)[Fuc(a1-6)]GlcNAc
# Summary of the method: as §1
# [35] = molecular target: Fuc(a1-2)[GalNAc(a1-3)]Gal(b1-4)GlcNAc(b1-3)Gal(b1-4)GlcNAc
# Summary of the method: as §1
# [36] = molecular target: Fuc(a1-2)[GalNAc(a1-3)]Gal(b1-4)GlcNAc(b1-3)Gal(b1-4)GlcNAc(b1-3)Gal(b1-4)GlcNAc
# Summary of the method: as §1
# [37] = molecular target: Fuc(a1-2)[GalNAc(a1-3)]Gal(b1-4)GlcNAc(b1-3)GalNAc
# Summary of the method: as §1
# [38] = molecular target: Fuc(a1-2)[GalNAc(a1-3)]Gal(b1-4)GlcNAc(b1-3)[Fuc(a1-2)[GalNAc(a1-3)]Gal(b1-4)GlcNAc(b1-6)]GalNAc
# Summary of the method: as §1
# [39] = molecular target: Fuc(a1-2)[GalNAc(a1-3)]Gal(b1-4)GlcNAc(b1-6)GalNAc
# Summary of the method: as §1
# [40] = molecular target: Fuc(a1-2)[GalNAc(a1-3)]Gal(b1-4)[Fuc(a1-3)]GlcNAc
# Summary of the method: as §1
# [41] = molecular target: Fuc(a1-2)[GalNAc(a1-3)]Gal(b1-4)[Fuc(a1-3)]GlcNAc(b1-3)GalNAc
# Summary of the method: as §1
# [42] = molecular target: Fuc(a1-2)[GalNAc(a1-4)]Gal(b1-4)GlcNAc
# Summary of the method: as §1
# [43] = molecular target: Fuc(a1-2)[GalNAc(b1-3)]Gal
# Summary of the method: as §1
binder,measurement,setting,value
PLU (Photorhabdus luminiscence) (protein) HHHHHHENLYFQSSIVFASIDPRSNPLQTSSQNYVDIPGLKLDVSKYSNSPCLTALITLNIPTPYASGNNFPGGNFAIVTDQGEQLAYGGFTYSSKIPENSGRMPFTLVARYSLASNVSTIKAQWSNIRGSTVHIDSYASISAVIQCNQLV,glycan array binding signal (z-score),[1],-0.318
same,glycan array binding signal (z-score),Fuc(a1-2)Gal6S(b1-4)Glc,2.23
same,glycan array binding signal (z-score),[2],-0.348
same,glycan array binding signal (z-score),Fuc(a1-2)[Gal(a1-3)]Gal,3.17
same,glycan array binding signal (z-score),[3],2.9
same,glycan array binding signal (z-score),[4],0.036
same,glycan array binding signal (z-score),[5],4.43
same,glycan array binding signal (z-score),[6],2.12
same,glycan array binding signal (z-score),[7],0.23
same,glycan array binding signal (z-score),[8],-0.324
same,glycan array binding signal (z-score),[9],-0.187
same,glycan array binding signal (z-score),[10],3.43
same,glycan array binding signal (z-score),[11],3.83
same,glycan array binding signal (z-score),[12],2.31
same,glycan array binding signal (z-score),[13],3.78
same,glycan array binding signal (z-score),[14],1.48
same,glycan array binding signal (z-score),[15],1.97
same,glycan array binding signal (z-score),[16],2.24
same,glycan array binding signal (z-score),[17],-0.294
same,glycan array binding signal (z-score),[18],1.64
same,glycan array binding signal (z-score),[19],5.59
same,glycan array binding signal (z-score),[20],2.44
same,glycan array binding signal (z-score),[21],2.22
same,glycan array binding signal (z-score),[22],-0.022
same,glycan array binding signal (z-score),[23],0.11
same,glycan array binding signal (z-score),[24],-0.33
same,glycan array binding signal (z-score),[25],-0.115
same,glycan array binding signal (z-score),[26],-0.157
same,glycan array binding signal (z-score),[27],-0.249
same,glycan array binding signal (z-score),[28],-0.232
same,glycan array binding signal (z-score),[29],-0.294
same,glycan array binding signal (z-score),[30],2.77
same,glycan array binding signal (z-score),[31],2.73
same,glycan array binding signal (z-score),[32],3.66
same,glycan array binding signal (z-score),[33],0.292
same,glycan array binding signal (z-score),[34],-0.244
same,glycan array binding signal (z-score),[35],11.7
same,glycan array binding signal (z-score),[36],2.73
same,glycan array binding signal (z-score),[37],-0.364
same,glycan array binding signal (z-score),[38],2.28
same,glycan array binding signal (z-score),[39],2.34
same,glycan array binding signal (z-score),[40],3.42
same,glycan array binding signal (z-score),[41],-0.031
same,glycan array binding signal (z-score),[42],2.34
same,glycan array binding signal (z-score),[43],-0.231
